Among all 310,000 compounds or so, about 18,000 (5.8%) were called active. Inconclusive results, whose numbers are uncertain, are shown with a selection of clear calls. Calls follow the shape of the dose curve; as a rule, active = well fitted inhibition curve with a large enough effect; inconclusive = small, poorly fitted or top-dose-only effect, or another doubt; inactive = no such curve, though single readings can be large or run the other way. No potency is given beside an inconclusive call; the fits are too rough.
test: Primary qHTS for delayed death inhibitors of the malarial parasite plastid, 48 hour incubation; details: P. falciparum luciferase growth in erythrocytes; series mostly up to 28.7 µM; activity change, negative = inhibition: at the top concentration
Method in brief: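 Luminescence readout; reporter = integrated firefly luciferase in P. falciparum. RBC culture at 2% hematocrit, 0.1% parasitemia final, 37 C/5% CO2; decreased signal taken as growth inhibition.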
% is scaled to controls: 0 for no effect and ±100 for the full control effect; potency is read from the fitted curve at half-maximal effect; tags tell the direction and shape of the fitted curve.

Q: With `Clc1ccc(Nc2nc3ccccc3n3nnnc23)cc1` as the compound, how does the Potency read?
A: inconclusive [inhibitor, partial curve, poor fit]

Q: With `Cc1ccc2oc(C(Cl)(Cl)Cl)cc(=O)c2c1` as the compound, how does the Potency read?
A: active: 3.29 µM

Q: Which Potency does the source give for `Cc1ccc(C)c(S(=O)(=O)N2CCCCC2CCNC(=O)C(=O)NCc2ccncc2)c1` (stereo unspecified) here?
A: inconclusive [inhibitor, single point]

Q: Which Potency does the source give for `C=CCN1C(=O)/C(=C/C=C2/N(CC)c3ccc(S(=O)(=O)N(C)C)cc3N2CC)SC1=S` here?
A: inconclusive [inhibitor, partial curve, poor fit]

Q: With `CC(C)c1ccc(S(=O)(=O)N2CCN(C(=O)C3CCCC3)CC2)cc1` as the compound, how does the “activity change, negative = inhibition” value read?
A: inactive: 5.13%

Q: Which “activity change, negative = inhibition” value does the source give for `COc1cc(NC(=O)c2ccc3c(c2)OCO3)ccc1NC(=O)c1ccco1` here?
A: inactive: 21%

Q: Which “activity change, negative = inhibition” value does the source give for `CCN(CC)S(=O)(=O)c1cccc(NC(=O)CN2C(=O)NC3(CCOc4ccccc43)C2=O)c1` (stereo unspecified) here?
A: inactive: -12.3%

Q: For `CCCCCOC(=O)CSc1nnc(-c2ccccc2)c(=O)[nH]1`, which Potency is on record?
A: inconclusive [inhibitor, partial curve, poor fit]

Q: For `Cc1onc(-c2c(Cl)cccc2Cl)c1/C(N)=N/OC(=O)C1CC1`, which Potency is on record?
A: inconclusive [inhibitor, single point]

Q: Which Potency does the source give for `Cc1cc([N+](=O)[O-])ccc1NC(=O)Nc1ccccc1F` here?
A: inconclusive [inhibitor, single point]

Q: With `O=C(CCCNC(=O)c1ccc(Cl)cc1)Nc1ccccc1C(F)(F)F` as the compound, how does the “activity change, negative = inhibition” value read?
A: inactive: 18.9%

Q: With `COc1ccc(CN2C(=O)c3cccnc3C2=O)cc1S(=O)(=O)N1CC(C)Oc2ccccc21` (stereo unspecified) as the compound, how does the Potency read?
A: inconclusive [inhibitor, single point]

Q: Which Potency does the source give for `Cc1nc2cc(-c3cccs3)nn2c(NCC(C)(C)CN(C)C)c1C` here?
A: inconclusive [inhibitor, single point]

Q: For `COc1ccccc1NS(=O)(=O)c1cc(NC(=O)c2ccco2)ccc1N1CCOCC1`, which Potency is on record?
A: inconclusive [inhibitor, partial curve, poor fit]

Q: For `CNC(=S)N(CCc1c(C)[nH]c2ccccc12)Cc1cc(OC)c(OC)c(OC)c1`, which Potency is on record?
A: inconclusive [inhibitor, single point]

Q: With `O=C(Oc1ccc(-c2cnc3ccccc3n2)cc1)c1ccc(Cl)c([N+](=O)[O-])c1` as the compound, how does the “activity change, negative = inhibition” value read?
A: inactive: 212%

Q: For `CN1CCN(Cc2nc3ccccc3c(=O)n2Cc2nc(-c3ccc4ccccc4c3)cs2)CC1`, which Potency is on record?
A: active: 11.7 µM

Q: With `CCOc1ccc(S(=O)(=O)N(CC)CC(=O)N2CCCC2)cc1C` as the compound, how does the Potency read?
A: inconclusive [inhibitor, partial curve]

Q: For `O=C(Nc1nccs1)c1ccc(-c2ccccc2Cl)o1`, which Potency is on record?
A: inconclusive [inhibitor, single point]

Q: Which Potency does the source give for `C=CCc1ccccc1OCCn1ccnc1` here?
A: inconclusive [inhibitor, partial curve, poor fit]

Q: For `N#C/C(=C\c1c(N2CCC(C(N)=O)CC2)nc2ccccn2c1=O)S(=O)(=O)c1ccc(Cl)cc1`, which “activity change, negative = inhibition” value is on record?
A: inactive: 6.31%

Q: Which “activity change, negative = inhibition” value does the source give for `CC(=O)c1cccc(NC(=O)CCN2C(=O)C3C4CCC(C4)C3C2=O)c1` (stereo unspecified) here?
A: inactive: 19.1%

Q: For `COc1ccc(-n2ncc3c(=O)n(CC(=O)N4c5ccccc5CC4C)cnc32)cc1` (stereo unspecified), which Potency is on record?
A: inconclusive [inhibitor, single point]

Q: With `CCCCn1nnc(NC(=O)c2ccc(-c3ccccc3)cc2)n1` as the compound, how does the Potency read?
A: inconclusive [inhibitor, single point]

Q: Which “activity change, negative = inhibition” value does the source give for `O=C(Cc1ncc(C(F)(F)F)cc1Cl)NCCc1ccccn1` here?
A: inactive: 483%

Q: Which “activity change, negative = inhibition” value does the source give for `Cc1cccc(OCC(=O)O/N=C(\N)c2ccccn2)c1C` here?
A: inactive: 57.8%

Q: With `Cc1ccc(NC(=O)COCC(=O)Nc2ccc(C)cc2)cc1` as the compound, how does the “activity change, negative = inhibition” value read?
A: inactive: 23%

Q: For `COc1ccc(N2CCN(C(=O)CN3C(=O)NC4(CCCc5ccccc54)C3=O)CC2)cc1` (stereo unspecified), which Potency is on record?
A: inconclusive [inhibitor, full curve, poor fit]

Q: With `CC1(C)CC(=O)C2=C(C1)N(CCN1CCOCC1)C1=C(C(=O)CC(C)(C)C1)C2c1cccc(F)c1` as the compound, how does the Potency read?
A: active: 11.7 µM

Q: With `COc1ccccc1NC(=O)[C@H](COCc1ccccc1)NC(=O)OC(C)(C)C` as the compound, how does the Potency read?
A: inconclusive [inhibitor, single point]

Q: With `COc1ccc(Oc2ccc(C(F)(F)F)cc2NC(=O)c2ccc(F)cc2)cc1` as the compound, how does the Potency read?
A: inconclusive [inhibitor, single point]

Q: With `CCOC(=O)c1ccc(-c2ccc(C3Nc4ccccc4C(=O)N3O)o2)cc1` (stereo unspecified) as the compound, how does the Potency read?
A: inconclusive [inhibitor, single point]

Q: With `O=C(NC1CCCC1)c1ccc2c(c1)N(Cc1ccc(F)cc1)CCS2` as the compound, how does the Potency read?
A: inconclusive [inhibitor, single point]

Q: Which Potency does the source give for `COC(=O)c1ccc(Cn2c(O)c(N=O)c3ccccc32)o1` here?
A: inconclusive [inhibitor, single point]

Q: With `Cc1nc(CNC(=O)c2ccccc2OC2CCN(S(C)(=O)=O)CC2)cs1` as the compound, how does the “activity change, negative = inhibition” value read?
A: inactive: 15.3%

Q: For `COc1ccc(NC(=S)N(CCCN2CCCC2)Cc2cccn2Cc2ccc(Cl)cc2)cc1Cl`, which Potency is on record?
A: inconclusive [inhibitor, partial curve]

Q: With `COCCn1nnnc1C(c1ccc(OC)c(OC)c1)N1CCN(c2nc3ccccc3s2)CC1` (stereo unspecified) as the compound, how does the Potency read?
A: active: 13.1 µM

Q: Which Potency does the source give for `CCOc1ccccc1CN1CCCC(CNC(=O)Cc2ccc(OC)cc2)C1` (stereo unspecified) here?
A: inconclusive [inhibitor, partial curve, poor fit]

Q: With `CN(C)S(=O)(=O)Oc1ccc(Cl)cc1C(=O)Nc1ccc(F)cc1F` as the compound, how does the Potency read?
A: inconclusive [inhibitor, single point]

Q: For `O=S(=O)(/N=C(/Nc1ccc(Cl)cc1Cl)c1ccccc1)c1cccs1`, which “activity change, negative = inhibition” value is on record?
A: inactive: 47.4%

Q: For `Cc1ccccc1C1C(C#N)=C2NC(=O)c3c(sc4c3CCCCC4)N2C2=C1C(=O)CC(C)(C)C2` (stereo unspecified), which Potency is on record?
A: inconclusive [inhibitor, single point]

Q: With `CCOC(=O)C1=C(C)N=c2s/c(=C\c3cccc(OCC(=O)O)c3)c(=O)n2C1c1ccccc1OC` (stereo unspecified) as the compound, how does the Potency read?
A: inconclusive [inhibitor, full curve]

Q: Which Potency does the source give for `C/C(=N\NC(=O)CSCc1ccccc1Cl)c1cc(O)ccc1O` here?
A: inconclusive [inhibitor, single point]

Q: Which Potency does the source give for `Cc1[nH]c2ccccc2c1C(=O)C(=O)N1CCN(c2ccccc2Cl)CC1` here?
A: inconclusive [inhibitor, single point]

Q: Which Potency does the source give for `Cc1ccc(C(=O)OCC(=O)NC2CCCCC2)cc1S(=O)(=O)N1CCCCC1` here?
A: inconclusive [inhibitor, single point]

Q: For `COc1ccc(CCn2c(NN)nc3c2c(=O)[nH]c(=O)n3C)cc1`, which Potency is on record?
A: inconclusive [inhibitor, single point]

Q: For `COc1ccccc1CN(C)C(=O)CN1CCN(C(=O)c2cccs2)CC1`, which Potency is on record?
A: inconclusive [inhibitor, partial curve, poor fit]

Q: Which Potency does the source give for `CC(C)C(=O)c1cc2c(cc1NC(=O)c1cccs1)OCCO2` here?
A: inconclusive [inhibitor, single point]

Q: Which Potency does the source give for `COc1ccc(-c2nn(-c3ccccc3C)cc2CNC(C)Cn2cncn2)cc1F` (stereo unspecified) here?
A: inconclusive [inhibitor, single point]

Q: For `CCN(CC)c1ccc2c(Cl)cc(=O)oc2c1`, which “activity change, negative = inhibition” value is on record?
A: inactive: -2.03%

Q: Which Potency does the source give for `CCc1cc2c(=O)c(-c3nc4ccccc4n3C)coc2c(CN2CCC(C)CC2)c1O` here?
A: inconclusive [inhibitor, single point]

Q: For `N#CCCS(=O)(=O)c1nnnn1-c1ccccc1`, which Potency is on record?
A: inconclusive [inhibitor, full curve, poor fit]

Q: Which Potency does the source give for `Cc1cc2oc(=O)cc(C)c2cc1NC(=O)CCl` here?
A: inconclusive [inhibitor, partial curve, poor fit]

Q: Which “activity change, negative = inhibition” value does the source give for `CCCNC(=O)CN1C(=O)NC(c2ccccc2)(c2ccccc2)C1=O` here?
A: inactive: 11.4%

Q: Which Potency does the source give for `O=C(Nc1ccccc1SCC1CSc2nc3ccccc3c(=O)n21)c1ccccc1Cl` (stereo unspecified) here?
A: inconclusive [inhibitor, single point]

Q: Which Potency does the source give for `CCOC(=O)c1cc2c(C)n(-c3ccc(N(C)C)cc3)c(C)c2cc(C(=O)OCC)c1=O` here?
A: inconclusive [inhibitor, full curve]

Q: Which Potency does the source give for `CN(Cc1ccc(F)cc1)C(=O)c1cc(S(=O)(=O)N2CCCCC2)ccc1N1CCOCC1` here?
A: inconclusive [inhibitor, single point]

Q: With `O=C(CCC1CCCCC1)Nc1ccccc1-c1ccccc1` as the compound, how does the “activity change, negative = inhibition” value read?
A: inactive: 21.2%

Q: Which Potency does the source give for `O=C(COc1ccc(S(=O)(=O)NC2CCCC2)cc1)N1CCCCC1` here?
A: inconclusive [inhibitor, single point]

Q: With `Cc1cccc(NC(=S)N(CCCN2CCCC2)Cc2cccn2Cc2ccc(Cl)cc2)c1` as the compound, how does the Potency read?
A: inconclusive [inhibitor, partial curve, poor fit]

Q: Which Potency does the source give for `Cn1c(Oc2ccc(Cl)cc2)c(C=O)c2ccccc21` here?
A: inconclusive [inhibitor, partial curve, poor fit]

Q: For `Cc1ccccc1C(=O)Nc1ccnn1C1CCN(CCCc2ccccc2)CC1`, which Potency is on record?
A: inconclusive [inhibitor, single point]

Q: For `CCOc1ncccc1C(=O)N=C1SCCN1C(=O)c1cccnc1OCC`, which Potency is on record?
A: inconclusive [inhibitor, partial curve]

Q: With `CCCOc1ccc(C(=O)N(CC(C)C)c2c(N)n(Cc3ccccc3)c(=O)[nH]c2=O)cc1` as the compound, how does the Potency read?
A: inconclusive [inhibitor, partial curve]

Q: Which Potency does the source give for `Cc1cc(C)c(NC(=O)C[N+](C)(C)CC(O)COc2cccc3ccccc23)c(C)c1` (stereo unspecified) here?
A: active: 5.22 µM

Q: Which Potency does the source give for `CCC(C(=O)O)n1cnc2scc(-c3ccc(C)c(C)c3)c2c1=O` (stereo unspecified) here?
A: inconclusive [inhibitor, partial curve]

From PubChem BioAssay AID504832 (National Center for Advancing Translational Sciences (NCATS), 2011)
